Test results as given in article PMC4336329 (PLoS ONE, 2015).
In all, about 310,000 compounds went through this assay and about 2,200 (0.71%) showed an effect of 50% or more. Effects have a minus sign here. The list shows a part of the results.

Biological target: human ether-à-go-go-related gene (hERG) potassium channel (human, UniProt Q12809)
Assay: primary screen, population patch clamp on CHO cells stably expressing hERG

Sequence of human ether-à-go-go-related gene (hERG) potassium channel (Q12809 whole entry, looked up): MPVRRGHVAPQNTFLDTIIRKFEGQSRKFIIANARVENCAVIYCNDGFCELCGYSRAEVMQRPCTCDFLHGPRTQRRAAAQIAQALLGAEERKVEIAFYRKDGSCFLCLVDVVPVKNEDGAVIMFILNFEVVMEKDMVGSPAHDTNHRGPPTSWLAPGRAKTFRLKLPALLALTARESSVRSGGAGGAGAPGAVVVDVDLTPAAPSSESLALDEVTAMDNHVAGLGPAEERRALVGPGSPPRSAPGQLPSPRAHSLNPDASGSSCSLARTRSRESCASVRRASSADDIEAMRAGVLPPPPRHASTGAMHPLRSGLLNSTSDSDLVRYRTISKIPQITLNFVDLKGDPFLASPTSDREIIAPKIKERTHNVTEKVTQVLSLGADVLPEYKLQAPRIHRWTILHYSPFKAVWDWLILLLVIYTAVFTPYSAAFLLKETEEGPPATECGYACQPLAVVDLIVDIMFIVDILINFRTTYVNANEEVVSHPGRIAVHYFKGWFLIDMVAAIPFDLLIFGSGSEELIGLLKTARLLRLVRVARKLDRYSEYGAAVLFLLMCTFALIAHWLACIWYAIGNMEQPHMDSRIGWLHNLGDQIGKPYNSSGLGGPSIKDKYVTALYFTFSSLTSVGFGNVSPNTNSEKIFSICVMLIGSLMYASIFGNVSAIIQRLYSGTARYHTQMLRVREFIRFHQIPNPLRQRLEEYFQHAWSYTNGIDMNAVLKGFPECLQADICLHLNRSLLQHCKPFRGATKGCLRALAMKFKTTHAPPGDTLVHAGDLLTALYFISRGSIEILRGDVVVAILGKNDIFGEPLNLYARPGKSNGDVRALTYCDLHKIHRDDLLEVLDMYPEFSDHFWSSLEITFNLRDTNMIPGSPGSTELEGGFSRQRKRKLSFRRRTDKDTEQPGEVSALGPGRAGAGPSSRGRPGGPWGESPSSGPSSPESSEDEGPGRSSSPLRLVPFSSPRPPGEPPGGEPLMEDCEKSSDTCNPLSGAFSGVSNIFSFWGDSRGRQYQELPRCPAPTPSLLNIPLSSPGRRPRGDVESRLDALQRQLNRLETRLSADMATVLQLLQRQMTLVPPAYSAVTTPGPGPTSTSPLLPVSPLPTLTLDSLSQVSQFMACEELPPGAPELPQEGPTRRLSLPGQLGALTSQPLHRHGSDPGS

SMILES	hERG current change (%, negative = inhibition) at 1uM [%]
Cc1ccc(NC(=O)CSc2ccc3nnc(-c4ccccn4)n3n2)cc1	5.84
COc1ccc(C(=O)NC2=NCCS2)c(OC)c1	9.73
CC/C(=C/c1sc2ccccc2[n+]1CC)SC.COS(=O)(=O)[O-]	8.13
O=C(NCc1n[nH]c(=S)n1-c1cccc(C(F)(F)F)c1)c1ccc(S(=O)(=O)N2CCCC2)cc1	15.2
Cc1cccc(CCNC(=O)C2CCN(S(=O)(=O)c3ccccc3)CC2)c1	-2.02
CCn1c(COc2ccc(OC)cc2)nnc1SCc1nc2ccccc2c(=O)[nH]1	14.5
Cn1cc(NC(=O)CCl)cn1	27.7
O=C(NC(c1ccccc1)c1ccccc1)c1cccc(S(=O)(=O)NCc2ccccc2)c1	-0.118
Cc1cccc2sc(NC(=O)CSc3cn[nH]n3)nc12	14.7
O=C(NC(=S)Nc1ccc(-c2ccc(CO)o2)cc1)c1cccs1	10.6
O=C(Oc1ccc(/C=N/NC(=O)c2ccccn2)cc1)c1cccc(Br)c1	8.17
Cc1ccccc1OCC(O)Cn1c(Br)nc2c1c(=O)[nH]c(=O)n2C (centres unmarked)	5.88
Cc1ccccc1C(=O)c1cccn1CC(=O)NCc1ccc(F)cc1	9.03
CCCn1c(-c2ccc(C(=O)OC)cc2)nc2c1c(=O)[nH]c(=O)n2Cc1ccccc1	7.52
CC(=O)c1ccc(NC(=O)C2=CC(c3ccc4c(c3)OCO4)=NS(=O)(=O)N2C)cc1	9.25
Cc1cc(O)c(C2(O)C(=O)Nc3cc(Br)ccc32)cc1C (centres unmarked)	21.3
CCOC(=O)c1sc(SC)c2c1CCCC2=O	11.2
CC(C)(C)c1ccc(-c2nc(C#N)c(NCCCn3ccnc3)o2)cc1	5.95
CCN1CCN(C(=O)CN(c2ccc(F)c(Cl)c2)S(C)(=O)=O)CC1	17.3
CCOc1ccc(C(CC(=O)O)NC(=O)Cc2ccc(Cl)cc2)cc1 (centres unmarked)	13
O=C(Oc1cccnc1)c1ccc([N+](=O)[O-])cc1	7.57
COc1cccc(N2CC(C(=O)Nc3nnc(SCC(=O)NCC4CCCO4)s3)CC2=O)c1 (centres unmarked)	3.68

SMILES	hERG current change (%, negative = inhibition) at 1uM [%]
Cc1cnc(C(=O)N2CCN(c3ccc(C(F)(F)F)cn3)CC2)cn1	-0.383
COC(=O)[C@@]12CCCN1[C@H](c1ccc(-c3ccc(OC)cc3)c(OC)c1)[C@@H]1C(=O)N(C)C(=O)[C@@H]12.O=C(O)C(F)(F)F	10.5
S=c1[nH]c(-c2ccccc2)cn1/N=C/c1cccnc1	11
Cc1ccc2cc(C#N)c(N3CCN(C)CC3)nc2c1	5.71
Br.N=C(N)SCc1nc2ccccn2c1Br	-0.92
CCCCCNCc1ccc(Br)cc1.Cl	-4.86
CC(=O)c1c(C)nn(-c2ccccc2)c1C	15.5
Cc1csc(N2CCCC2c2nc3cc(Cl)c(N4CCCCC4)cc3n2CCCO)n1 (centres unmarked)	-4.89
Cl.OC(CC#CCN1CCCCCC1)(c1ccccc1)C1CCCC1 (centres unmarked)	4.13
CC(C)(C)c1ccc(OCCC(=O)Nc2ccc(N3CCOCC3)cc2N2CCOCC2)cc1	5.25
N#C/C(C(=S)Nc1ccccc1)=C1/NN=C(N2CCOCC2)N1c1ccccc1	12.5
CC(=O)Nc1ccc(N2Cc3ccccc3C2)cc1	11.8
Cc1cc(C(=O)NC(C)C2CC2)c(Cl)cc1Cl (centres unmarked)	16.4
CCc1cc(=O)[nH]c(SCC(=O)Nc2cc(C)on2)n1	7.23
COc1cc(C)c(S(=O)(=O)n2c([N+](=O)[O-])cnc2C)cc1C	15.6
COc1cc2c(cc1OC)C(C1C(=O)CCCC1=O)N(C(=O)CCl)CC2 (centres unmarked)	9.33
CCOc1ccc(CN(C)CC(=O)Nc2cccc3ccccc23)cc1OC.O=C(O)C(=O)O	-1.33
O=C(c1ccc(-c2nnc(-c3ccccc3)o2)cc1)N1CCCCCC1	12.8
CC(=O)N/C(=C/c1ccccc1)C(=O)N1CCCCC1	12.6
COc1ccc(N(CC(=O)NC2CCCCC2)C(=O)CCCC(=O)Nc2ccccn2)c(OC)c1	1.88
Cc1cccc(COc2ccccc2C(=O)NC2CCC(O)CC2)c1 (centres unmarked)	10.7
CCOc1ccc(CCNC(=O)c2ccc3nc(N4CCOCC4)sc3c2)cc1OCC	5.1
